For this series the following is noted: Homo sapiens, pH 7.4, sodium phosphate 10 mM, reversible: YES; for denaturant m value / denaturant midpoint (higher = more stable) / unfolding free energy: 25 °C, GdnHCl.

As for “Apolipoprotein A-I wild type (chain not printed)”, under “CD”, the denaturant m value is 2.4 kcal/mol/M, the “denaturant midpoint (higher = more stable)” value was determined as 1 M and the unfolding free energy worked out at 2.5 kcal/mol. Further, under “Fluorescence”, the denaturant m value worked out at 3.7 kcal/mol/M, the “denaturant midpoint (higher = more stable)” value is 1.1 M and the unfolding free energy was determined as 4 kcal/mol. Besides, under “Thermal, CD”, the Tm is 59 °C and the “unfolding enthalpy (van 't Hoff)” value is 40 kcal/mol.
